Data published in the supplement of paper PMC11417369.
The list shows a part of the results.

System: PfSIP2 AP2 domain 1 (GST-tagged)
Test: gcPBM binding intensity (ln(normalized median fluorescence intensity)); higher = stronger DNA binding
Procedure, shortened: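 Alexa488 anti-GST antibody, scanned at 488 nm, detected GST-tagged P. falciparum DNA-binding domains that had been expressed in E. coli and incubated for 1 h on an Agilent 4 × 180k array. The array carried primer-extended double-stranded 36-bp intergenic genomic probes and negative controls. Binding intensity is the highest Masliner-normalised natural-log median intensity across replicate spots of either orientation of each probe.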

| Sequence | gcPBM binding intensity (ln) |
| --- | --- |
| CATAAAAATGAACATACACACATATATATATATATA [CACACA_site2498] | 9.39 |
| TTGCTTTCTTTTTTTTGTACTCATATCTACTATCAT [XGTACX_site7711] | 7.07 |
| CGAGCAAGACGGGGTGCACACAAACTAATATGCCGA [CACACA_site7936] | 12.1 |
| ATTATTATGTAGAAGGTGCTATGTTCTATAAATATA [GTGCAC_site9545] | 8.09 |
| TACCTTTATTAATAAAGTACATTAATCTGTGTATAC [XGTACX_site8720] | 6.88 |
| AAAAAAAAAAAAATGTGGACACAATTGTGTGTTTGT [XGTACX_site3563] | 7.1 |
| TACATATTTTATAGCACACAAATAATAATATGTAGT [CACACA_site688] | 7.03 |
| TTTTTGTTAAAATAAATATTATAAATATATTAATAT [TGCATGCA_negctrl_site239] | 6.98 |
| GTTGTGGAAAGAAGTTGTACATAAAATATTATATAA [XGTACX_site4352] | 7.22 |
| AGGCCTTTTAGTATTTCACACACGTAAATGCGTATA [CACACA_site1108] | 6.6 |
| TTTTTTCTTTTTTTTTTTAATTATAAACATGATATT [GTGCAC_negctrl_site144] | 6.63 |
| TAAATATATATAACATGTACATAAAATATATATATA [XGTACX_site4431] | 8.61 |
| TATCTTCATTGTTGACGTACAGTATTTCTAAACGTT [XGTACX_site3439] | 6.96 |
| CCACTTGTGTAATGTTGTACAAAAATAAATATATTT [XGTACX_site4598] | 7.03 |
| CTATGAACACACACATGTACATATATTAACTCGCTA [XGTACX_site8805] | 7.07 |
| ATAATTAAAAATAATATATATATAATATGATATTAT [GTGCAC_negctrl_site194] | 6.94 |
| TACACATACAGACATACACACATACACATATACACA [CACACA_site6918] | 7.23 |
| AAAAAAAAAAAAAACACACACACACGCACATATACA [CACACA_site7288] | 7.66 |
| TATCCATATTTGTTCACACACACACCCATTTATATA [CACACA_site3571] | 7.27 |
| ATTTTTATGTTGAAAAGTACTTGAATCCCATGTAAC [XGTACX_site4453] | 7.09 |
| TTCTTTTTTTTTAAAACAAACAAACAAACAAACAAA [CACACA_negctrl_site832] | 7.06 |
| TATTTATTTATTTAGTGTACATTTATATTTGTTCAT [XGTACX_site7575] | 7.02 |

| Sequence | gcPBM binding intensity (ln) |
| --- | --- |
| TTAATCTTTCCTACATGTACACACAGAAAAAAAAAA [XGTACX_site5213] | 7.42 |
| AATATAAATAAAAAATTGATTTCTTTAAAAAGGTAT [CACACA_negctrl_site1038] | 6.78 |
| TACAAATGAGAAATATGTACATAAAAAAAAAAAAAT [XGTACX_site801] | 7.2 |
| TTGTTCTTTCAAATTATACACACCAAAAAAAAAAAA [CACACA_site3070] | 7.21 |
| TAATCATAAAAAAATACACACATATATAATATATAT [CACACA_site1983] | 7.32 |
| ATACAAAATCTAATTTGTACACAATGTTTGATTTTT [XGTACX_site5438] | 6.79 |
| ATACAAATTAAGCCTCAAGTTCTTTTTTTTAACATA [XGTACX_negctrl_site580] | 6.58 |
| ATATAACATGGACACACACACATATATATATATTAT [CACACA_site6135] | 7.35 |
| GTGAAATTATATTTTTGTACATATATTATATATTAT [XGTACX_site3387] | 7.07 |
| AAAAAAAAGAATTATTGTACAAAAGAACAATAAATA [XGTACX_site1368] | 6.75 |
| GGTGCACCCATATACACACACAAATACAATGATAAA [CACACA_site1132] | 12.4 |
| GTATATATCTAAAAATATATATATATATATATATAT [CACACA_negctrl_site788] | 9.43 |
| ATCGAAGGGGTACAAAATAAAAATAATTCTTTCAAA [TGCATGCA_negctrl_site373] | 7.16 |
| TATAAATAAATATGGAGTACCAAAAAAATTATAAAA [XGTACX_site7581] | 7 |
| AAGTGTTATGAAATATGTACACATATATTATATATA [XGTACX_site6022] | 7.32 |
| AAATATAAAAAAAAAAGTACTTTGTTACTTTTCTAT [XGTACX_site6034] | 6.79 |
| TTTTTATTAAATAAAGCACACACAACAACTTTTCAC [CACACA_site9372] | 7.37 |
| TAACCATAAGAAGATTGTACATAATAAAAGTATTCT [XGTACX_site1117] | 6.84 |
| AAAATAAATATAACCACACACGAAAGAGAGAGAAAA [CACACA_site3272] | 6.89 |
| AACTGCAAAAAAAGACGTACAAATTATTAATTGCAA [XGTACX_site8929] | 7.04 |
| ATATATATATATATATGTACATACCCAATTGTGTAA [XGTACX_site6352] | 9.52 |
| ATTTAAAATGGTTATACACACATAAAAGGGGAAATG [CACACA_site2649] | 7.1 |
